Measured values published in the CheMixHub viscosity set.

| Structure (SMILES) | viscosity (298.15 K, 101 kPa) | viscosity (308.15 K, 101 kPa) | viscosity (298.15 K, 101.33 kPa) | viscosity (303.15 K, 101.33 kPa) | viscosity (308.15 K, 101.33 kPa) |
| --- | --- | --- | --- | --- | --- |
| CC(=O)c1ccccc1 | 1.666 ± 0.08 mPa·s [study A] and 1.638 ± 0.063 mPa·s [study B] and 1.645 ± 0.043 mPa·s [study C] and 1.674 ± 0.026 mPa·s [study D] | 1.394 ± 0.043 mPa·s [study A] and 1.415 ± 0.067 mPa·s [study B] and 1.351 ± 0.012 mPa·s [study C] and 1.351 ± 0.019 mPa·s [study D] | – | – | – |
| CCCCCCCCC | – | – | 0.655 ± 0.017 mPa·s [study A] and 0.65 ± 0.017 mPa·s [study B] and 0.66 ± 0.017 mPa·s, 0.66 ± 0.0089 mPa·s [study C] and 0.652 ± 0.005 mPa·s [study D] and 0.659 ± 0.011 mPa·s [study E] and 0.661 ± 0.005 mPa·s [study F] and 0.656 ± 0.012 mPa·s [study G] | 0.608 ± 0.016 mPa·s [study A] and 0.612 ± 0.005 mPa·s [study B] and 0.62 ± 0.011 mPa·s [study C] and 0.618 ± 0.004 mPa·s [study D] and 0.613 ± 0.012 mPa·s [study E] | 0.577 ± 0.016 mPa·s [study A] and 0.569 ± 0.015 mPa·s [study B] and 0.574 ± 0.004 mPa·s [study C] and 0.58 ± 0.011 mPa·s [study D] and 0.581 ± 0.004 mPa·s [study E] and 0.575 ± 0.011 mPa·s [study F] |

± gives the uncertainty stated by the source. Some entries of the source have several records that differ or are many. This list holds those alone. An entry can have further records. Results that share an entry are repeats across runs, samples, wells, individuals or studies. Records carry a tag for their origin. Letters hold for one entry only.
